# Patent publication US9157904B2, “Wnt antagonists and methods of treatment and screening” (OncoMed Pharmaceuticals, Inc., priority 2010, dated 2015)
# B1: 54F09: FZD8-Fc variant, IgG1 Fc; SEQ ID NO:46 (protein)
# chain: ASAKELACQEITVPLCKGIGYNYTYMPNQFNHDTQDEAGLEVHQFWPLVEIQCSPDLKFFLCSMYTPICLEDYKKPLPPCRSVCERAKAGCAPLMRQYGFAWPDRMRCDRLPEQGNPDTLCMDYNRTDLTTAAPSPP[omitted - human IgG1 Fc]
# modifications: FZD8-Fc variant 54F09
# B2: 54F15: FZD8-Fc variant, IgG1 Fc; SEQ ID NO:48 (protein)
# chain: ASAKELACQEITVPLCKGIGYNYTYMPNQFNHDTQDEAGLEVHQFWPLVEIQCSPDLKFFLCSMYTPICLEDYKKPLPPCRSVCERAKAGCAPLMRQYGFAWPDRMRCDRLPEQGNPDTLCMDYNRTDLTTAAP[omitted - human IgG1 Fc]
# modifications: FZD8-Fc variant 54F15
# B3: 54F16: FZD8-Fc variant, IgG1 Fc; SEQ ID NO:50, native signal sequence (SEQ ID NO:52) (protein)
# chain: ASAKELACQEITVPLCKGIGYNYTYMPNQFNHDTQDEAGLEVHQFWPLVEIQCSPDLKFFLCSMYTPICLEDYKKPLPPCRSVCERAKAGCAPLMRQYGFAWPDRMRCDRLPEQGNPDTLCMDYNRTDL[omitted - human IgG1 Fc with C220S (EU numbers) and a few adjoining residues]
# modifications: FZD8-Fc variant 54F16, 54F17, 54F18, 54F23, 54F25, 54F27, 54F29, 54F31, and 54F34 (without predicted signal)
# B4: 54F23: FZD8-Fc variant with modified signal sequence; SEQ ID NO:50 (protein)
# chain: ASAKELACQEITVPLCKGIGYNYTYMPNQFNHDTQDEAGLEVHQFWPLVEIQCSPDLKFFLCSMYTPICLEDYKKPLPPCRSVCERAKAGCAPLMRQYGFAWPDRMRCDRLPEQGNPDTLCMDYNRTDL[omitted - human IgG1 Fc with C220S (EU numbers) and a few adjoining residues]
# modifications: modified signal sequence; FZD8-Fc variant 54F16, 54F17, 54F18, 54F23, 54F25, 54F27, 54F29, 54F31, and 54F34 (without predicted signal)
# B5: 54F26: FZD8-Fc variant; SEQ ID NO:53 with signal sequence SEQ ID NO:71 (SEQ ID NO:75) (protein)
# chain: MEWGYLLEVTSLLAALFLLQRSPIVHAASAKELACQEITVPLCKGIGYNYTYMPNQFNHDTQDEAGLEVHQFWPLVEIQCSPDLKFFLCSMYTPICLEDYKKPLPPCRSVCERAKAGCAPLMRQYGFAWPDRMRCDRLPEQGNPDTLCMDYNRTDLTT[omitted - human IgG1 Fc with changes]
# modifications: FZD8-Fc variant 54F26 (with signal)
# Columns and labels:
# C28 colon tumor [1] = assay: C28 colon tumor xenograft, FZD8-Fc variants (Example 14); assay type: in vivo, NOD/SCID mice; details: C28 established tumors; 15 mg/kg i.p. twice a week
# Method: (§1) Dissociated C28 colon tumor cells (10,000 cells) were injected subcutaneously into 6-8 week old male NOD/SCID mice. Tumors were allowed to grow for 28 days until they reached an average volume of 145 mm^3. The mice were randomized (n=9 per group) and treated with FZD8-Fc variants or a control antibody at a dose of 15 mg/kg twice a week. Administration of the FZD8-Fc variants and control antibody was performed via injection into the intraperitoneal cavity. Tumor growth was monitored and tumor volumes were measured with electronic calipers at the indicated time points. Data are expressed as mean±S.E.M.
# [2] = test system: canonical Wnt signaling pathway; assay: Luciferase reporter assay in STF293 cells with Wnt3a-conditioned medium; assay type: cell-based; details: blocking of Wnt3a-induced luciferase in STF293 cells; relative to reference standard set at 100%
# Method: The ability of the FZD8-Fc variants to block or inhibit activation of the Wnt signaling pathway was determined in vitro using a luciferase reporter assay. STF293 cells were cultured in DMEM supplemented with antibiotics and 10% FCS. The STF293 cells are stably transfected with a reporter vector containing seven copies of the TCF transcriptional response element linked to a promoter upstream of a firefly luciferase reporter gene. This construct measures the activity of the canonical Wnt signaling pathway. The cells were added to cultures plates at 10,000 cells per well. After an overnight incubation the FZD8-Fc variants or control mouse JAG1-Fc were added in combination with Wnt3a-conditioned medium. The FZD8-Fc variants and JAG1-Fc were used at concentrations of 20, 4, 0.8, 0.16, 0.03, 0.006, 0.0012, and 0.0003 ug/ml. The cells were incubated in 25% Wnt3A-conditioned medium that had been prepared from L cells that stably express Wnt3a. After overnight incubation (approximately 18 hrs), luciferase levels were measured using a Steady-Glo® luciferase assay kit (Promega, Madison, Wis.).
# The blocking activity of the FZD8-Fc variants was determined and is presented in Table 3 as relative activity as compared to the same reference standard run in each assay which was set at 100%.
# [3] = Pharmacokinetics of FZD8-Fc variants in rats; details: rat, tail vein, 10 mg/kg, plasma
# [4] = rat, in vivo, 10 mg/kg
# [5] = Pharmacokinetics of FZD8-Fc variants in cynomolgus monkeys; details: monkey, IV bolus 30 mg/kg
# PN4 tumors = assay: FACS for ESA, CD44 and CD201 on PN4 tumors treated with variants; assay type: in vivo, NOD/SCID mice; details: vs control antibody
# Method: Pancreatic tumor cells from the tumor-bearing mice described above were harvested and minced into approximately 1 mm^3 fragments, followed by enzymatic digestion at 1 gram per 10 ml of 300 μg/ml collagenase and 200 U/ml DNase I for 2 hours at 37° C./5% CO2 with intermittent mixing with a 10 ml pipet to disperse cells. Digestion was stopped by adding an equal volume of FACS buffer (1× Hanks Buffered Saline Solution (HBSS), 2% heat-inactivated Fetal Calf Serum (FCS) and 2 mM HEPES pH 7.4). Cells were filtered through 40 μm nylon filters and collected by centrifugation at 150×g for 5 minutes. Red blood cells were lysed in a hypotonic buffer containing ammonium chloride for 2 minutes on ice, and the cells were washed again with excess FACS buffer, and resuspended with FACS buffer at 1×10^7 cells/ml.
# The freshly prepared single cell suspensions were stained for 20 minutes on ice with biotinylated anti-mouse H-2Kd (clone SF1-1.1, Biolegend, San Diego, Calif.) at 5 μg/ml, biotinylated anti-mouse CD45 (30-F11, Biolegend) at […], and streptavidin-PerCP-Cy5.5 (eBioscience, San Diego, Calif.) at 1:200 dilution. Unbound antibody was removed by washing twice with 10 volume of FACS buffer. […]
# C28 colon tumor [6] = assay: C28 colon tumor xenograft, FZD8-Fc variants (Example 17); assay type: in vivo, NOD/SCID mice; details: C28 established tumors; 15 mg/kg i.p. twice a week; after three weeks of treatment
# Method: as §1, with “grow for 56 days until” for “grow for 28 days until”, “volume of 175 mm^3. The” for “volume of 145 mm^3. The”, “were randomized (n=10 per group)” for “were randomized (n=9 per group)”, “with FZD8-Fc constructs 54F03, 54F23, 54F26, or a” for “with FZD8-Fc variants or a”
# [7] = individual animal, listed as FZD8-Fc 54F15, 30 mg/kg
# [8] = individual animal, listed as FZD8-Fc 54F16, 30 mg/kg
Molecule,reduction in tumor growth as compared to control antibody (C28 colon tumor [1]) [%],% Relative Activity [2],t1/2 in hours [4] [h],AUC0-last ([5]; Mean of two animals) [µg·h/mL],AUC0-∞ ([5]; Mean of two animals) [µg·h/mL],reduction of tumor growth as compared to control antibody (C28 colon tumor [6]) [%],also measured
B1,~70,156% and 157%,,,,,t1/2 in hours [3]: 136 h
B2,~64,128%,109,30273.845,33039.046,,"AUC0-last [5, 7]: 28642.7714 µg·h/mL and 31904.9182 µg·h/mL; AUC0-∞ [5, 7]: 31231.8587 µg·h/mL and 34846.2341 µg·h/mL"
B3,~70,125%,154,32511.121,39460.17,,"percentage of CD44^hi cells (PN4 tumors): decreased the percentage of CD44^hi cells; percentage of CD201^+CD44^+ cells (PN4 tumors): decreased the percentage of CD201^+CD44^+ cells; AUC0-last [5, 8]: 29088.083 µg·h/mL and 35934.159 µg·h/mL; AUC0-∞ [5, 8]: 35470.3956 µg·h/mL and 43449.9446 µg·h/mL"
B4,,,,,,57,
B5,,,,,,52,

# Several values for one entry are separate records, joined by “and”; a condition that tells them apart may be missing. Identical values can stand only once. Like-named read-outs stand apart in the source and are kept apart here.
